About 2,200 (0.71%) of roughly 310,000 compounds showed an effect of 50% or more. Effects have a minus sign here. The list shows a part of the results.
target: human ether-à-go-go-related gene (hERG) potassium channel (human, UniProt Q12809); assay: primary screen, population patch clamp on CHO cells stably expressing hERG
Sequence (Q12809 whole entry, looked up): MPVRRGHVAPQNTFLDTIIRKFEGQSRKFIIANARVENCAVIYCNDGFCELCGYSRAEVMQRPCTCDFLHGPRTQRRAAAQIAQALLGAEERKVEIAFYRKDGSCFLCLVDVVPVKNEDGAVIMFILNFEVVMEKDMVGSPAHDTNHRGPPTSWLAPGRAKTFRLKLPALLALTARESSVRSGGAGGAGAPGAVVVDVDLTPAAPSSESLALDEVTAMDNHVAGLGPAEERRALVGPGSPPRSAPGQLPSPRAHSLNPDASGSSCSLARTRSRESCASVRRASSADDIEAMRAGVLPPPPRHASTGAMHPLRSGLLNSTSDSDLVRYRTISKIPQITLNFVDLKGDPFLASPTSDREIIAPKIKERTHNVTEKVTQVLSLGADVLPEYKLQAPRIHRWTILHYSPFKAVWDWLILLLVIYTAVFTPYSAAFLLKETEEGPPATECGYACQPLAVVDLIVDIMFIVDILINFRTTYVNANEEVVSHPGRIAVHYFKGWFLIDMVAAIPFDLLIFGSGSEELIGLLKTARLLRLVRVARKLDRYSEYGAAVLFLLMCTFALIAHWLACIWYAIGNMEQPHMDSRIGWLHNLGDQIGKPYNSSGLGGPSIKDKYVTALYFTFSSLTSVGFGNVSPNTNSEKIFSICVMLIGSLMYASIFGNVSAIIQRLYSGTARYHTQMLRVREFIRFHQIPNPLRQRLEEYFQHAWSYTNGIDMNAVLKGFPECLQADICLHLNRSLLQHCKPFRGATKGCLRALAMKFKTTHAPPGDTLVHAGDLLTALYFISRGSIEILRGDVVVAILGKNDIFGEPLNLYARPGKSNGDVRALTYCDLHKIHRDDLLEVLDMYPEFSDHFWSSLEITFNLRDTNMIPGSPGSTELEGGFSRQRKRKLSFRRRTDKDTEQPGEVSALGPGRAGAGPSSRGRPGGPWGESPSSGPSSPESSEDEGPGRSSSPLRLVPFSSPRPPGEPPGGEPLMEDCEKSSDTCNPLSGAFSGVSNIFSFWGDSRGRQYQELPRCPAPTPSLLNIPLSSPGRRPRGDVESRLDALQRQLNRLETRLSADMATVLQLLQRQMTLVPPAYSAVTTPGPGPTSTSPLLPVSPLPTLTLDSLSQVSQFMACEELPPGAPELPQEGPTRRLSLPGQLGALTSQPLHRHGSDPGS

Structure (SMILES) | hERG current change (%, negative = inhibition) at 1uM [%]
COc1ccc(OCCNS(=O)(=O)c2cccc([N+](=O)[O-])c2)cc1 | 10.5
Cc1cc(=O)oc(C)c1C(=O)NCCCN1C(C)CCCC1C (stereo not drawn) | 20.2
COc1ccc(OC)c(C(=O)CSc2nnc(Cc3cccs3)n2C)c1 | -3.55
CN(CC(=O)O)S(=O)(=O)c1cc(Cl)ccc1Cl | 6.43
O=C(Cc1ccc(Cl)cc1)NCCS(=O)(=O)N1CCN(c2ccccc2F)CC1 | 0.739
Cc1cc(NC(=O)c2cccnc2Cl)ccc1NC(=O)c1cc2ccccc2o1 | 18.2
COc1ccc(CCNC(=O)C(=O)NCc2ccccc2)cc1OC | 14.2
Cc1cc(OCC(=O)NCc2ccc(S(N)(=O)=O)cc2)c2c3c(c(=O)oc2c1)CCC3 | 13.4
CCCOc1ccc(C2C3=C(Nc4nc(N)[nH]c(=O)c42)c2ccccc2C3=O)cc1 (stereo not drawn) | -8.47
C=CCNc1nc(=S)[nH]c2cc(OC)c(OC)cc12 | 8.32
O=C1CCC(=O)N(O)CCCCCNC(=O)CCC(=O)N(O)CCCCNC(=O)CCC(=O)N(O)CCCCCN1 | 9.22
COc1ccccc1CC(=O)NC1CCCc2ccccc21 (stereo not drawn) | -0.162
CCCCc1cc(=O)oc2cc(O)ccc12 | 3.97
O=C(c1ccc([N+](=O)[O-])cc1)n1nc(-c2ccccc2)nc1NCc1ccccc1 | 2.69
COc1ccc(/C=N/OCC(=O)NC(c2ccccc2)c2ccccc2)c(OC)c1 | -15.2
CCOc1ccc(NC(=O)COC(=O)c2ccc3c(c2)OCCO3)cc1 | 19.5
CCOc1ccccc1C1CC(=O)Nc2cc3c(cc21)OCCO3 (stereo not drawn) | 4.97
O=S(=O)(Nc1ccc(OC(F)(F)F)cc1)c1cccc2nonc12 | 17.2
COc1ccc(-c2nnn(CC(=O)N(CC(=O)NCCC(C)C)Cc3cccs3)n2)cc1OC | -3.48

Structure (SMILES) | hERG current change (%, negative = inhibition) at 1uM [%]
O=C(COc1ccccc1Cl)Nc1ccc(C(=O)O)cc1NC(=O)COc1ccccc1Cl | 13
CCN(CC)c1ccc(/C=N/NS(=O)(=O)c2ccc(C)c([N+](=O)[O-])c2)cc1 | 10.5
CC(CCc1ccccc1)NC(=O)COC(=O)c1ccc(NC(=O)CC#N)cc1 (stereo not drawn) | 10.6
N#CCC(=O)NC(=O)NCC1CC1 | 12.1
CSc1nc2c(c(-c3ccc(O)cc3)c1C#N)CCC2 | 12.2
Cc1ccc2c(c1)CCCN2C(=O)c1ccco1 | 8.34
COc1ccc(OC)c(NC(=O)c2c3c(nc4ccccc24)CCC3)c1 | -0.839
CC1=CC(=O)C=C(C)C1=NOC(=O)/C=C\c1ccccc1 | 11.7
COc1ccc(N2CCN(S(=O)(=O)c3ccc(C(=O)NCc4ccco4)cc3)CC2)cc1 | 4.71
CC(=O)Oc1cccc(N2C(=O)C3CC=C(Cl)CC3C2=O)c1 (stereo not drawn) | 2.21
Cc1ccccc1N1CCN(C(=O)CCN2C(=O)c3ccccc3C2=O)CC1 | 1.51
C/C=C(\C)CN1CCC(n2nccc2NC(=O)CCc2ccccc2)CC1 | 6.17
CC(=O)NCC(=O)N1CCC(n2nccc2NC(=O)CCCc2ccccc2)CC1 | -5.9
COC(=O)Nc1c(C(=O)OC)cc(OC)c(OC)c1OC | 6.05
O=[N+]([O-])c1cccc(/C=C2\CCC(/C=N/Nc3ccc4ccccc4n3)=C2N2CCOCC2)c1 | 11.1
COc1ccc(N2CCN(C(=O)COC(=O)CNC(=O)c3ccc(C)cc3)CC2)cc1 | 9.43
NC(=O)N1N=C2/C(=C/c3ccccc3)CCCC2C1c1ccccc1 (stereo not drawn) | 15.7
Cl.NC(CC(=O)O)c1ccc(F)cc1 (stereo not drawn) | 2.56
C/C(N)=C(/C#N)C(=O)COC(=O)COc1ccc(Cl)cc1C | 4.95

Structure (SMILES) | hERG current change (%, negative = inhibition) at 1uM [%]
Cc1ccc(N2C(=O)NC(NS(=O)(=O)c3ccc(C)cc3)(C(F)(F)F)C2=O)cc1 (stereo not drawn) | 6.07
Clc1ccc(-c2nc(Cc3ccccc3Cl)no2)cc1 | 7.93
CC(=O)Nc1ccc(OC(F)(F)C(F)C(F)(F)F)c(NC(C)=O)c1 (stereo not drawn) | 15.3
Cc1oc(-c2ccccc2Cl)nc1CS(=O)(=O)CC(=O)NCCN1CCOCC1 | 5.34
Cc1cc2c(c(Sc3ccccc3)n1)C(=O)OC2 | -10.8
Cc1ccc(NC2OC(CO)C(O)C2O)cc1[N+](=O)[O-] (stereo not drawn) | 8.42
CCNC(=O)NC(=O)C(C)OC(=O)[C@H](C)NS(=O)(=O)c1c(C)c(C)cc(C)c1C (stereo partly drawn) | -7.17
C=CCSc1nnc(NC(=O)c2ccc(S(=O)(=O)NCC3CCCO3)cc2)s1 (stereo not drawn) | 15
COC(=O)c1cccc(C(=O)Nc2ccc(C)cc2Br)n1 | -2.04
CC(=O)N1CN(CCCn2ccnc2)Cc2c1sc1c2CCCC1 | 9.63
O=C(NC1=NCCS1)c1cccc(OC(F)F)c1 | 10.3
CCC(C)N1CCNCC1.Cl (stereo not drawn) | 13.9
CSc1ccc(C(=O)C2CCCN(C(=O)Cn3cnnn3)C2)cc1 (stereo not drawn) | 1.33
CS(=O)(=O)c1ccc2nc(NC(=O)c3cccc(Cl)c3)sc2c1 | 6.95
O=S(=O)(N1CCCCC1)N1CCN(c2ccccc2F)CC1 | 9.46
CC(=O)Nc1sc(C)c(C)c1CN1CCN(S(=O)(=O)c2ccccc2)CC1 | 2.9
COc1cc(/C=N/NC(=O)CCc2c(C)n[nH]c2C)ccc1O | 12
O=C(N1CCCCC1)N1CCN(S(=O)(=O)c2ccccc2)CC1 | 6.85
COc1ccc(C(=O)N[C@H](C(=O)Nc2nc3c(s2)CCCC3)C(C)C)cc1 | 7.47

Reference: PMC4336329 (PLoS ONE, 2015)
